# Experimental data reported in PubChem BioAssay AID2675 (National Center for Advancing Translational Sciences (NCATS), 2010).
# About 100 (0.036%) of roughly 280,000 compounds were called active. Inconclusive means that the source gave no clear call. Such entries were picked first, then a sample of the others. The call rests on the fitted dose curve; in most records, active means well fitted inhibition curve with a large enough effect in the signal ratio, with a control signal flat (not every such curve was filed as active); inconclusive means small, poorly fitted or top-dose-only effect, or effect the other way, or a change in a side signal; inactive means no such curve, though single readings can be large or run the other way; the % refers to the signal ratio. Potencies beside an inconclusive call are fits to weak or partial responses and may not hold up. “Side channel” marks fits to a control or component signal instead of the main read-out.
# Biological target: Muscleblind-like protein 1 (Homo sapiens) (UniProt Q9NR56)
# Sequence of UniProt Q9NR56 (Q9NR56 whole entry, looked up): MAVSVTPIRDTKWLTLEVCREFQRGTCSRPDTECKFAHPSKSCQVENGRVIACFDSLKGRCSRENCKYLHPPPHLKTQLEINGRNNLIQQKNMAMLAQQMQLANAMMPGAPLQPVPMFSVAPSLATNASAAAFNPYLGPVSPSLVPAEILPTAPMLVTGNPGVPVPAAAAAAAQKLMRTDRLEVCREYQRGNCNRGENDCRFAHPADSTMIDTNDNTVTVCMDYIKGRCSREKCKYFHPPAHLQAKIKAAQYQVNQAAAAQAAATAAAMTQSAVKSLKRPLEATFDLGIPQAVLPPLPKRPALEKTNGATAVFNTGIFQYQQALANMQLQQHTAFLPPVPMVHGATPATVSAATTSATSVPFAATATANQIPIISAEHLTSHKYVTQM
# Assay: qHTS Assay for Inhibitors of MBNL1-poly(CUG) RNA binding
# Details: TR-FRET MBNL1-His/biotin-(CUG)12 binding, 665/545 ratio; activity change, negative = inhibition: at 57.5 µM (top of the series)
# Method in brief: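 Inhibition of protein-RNA binding appears as loss of TR-FRET between terbium anti-His antibody on MBNL1-His and streptavidin-XL665 on biotin-(CUG)12. Activity is normalized to buffer-only and uninhibited-complex controls.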
# On the % scale 0 is the no-effect control and ±100 the full control effect; potency means the concentration at half of the fitted maximal effect; tags describe the fitted curve by direction and shape or compound fluorescence and quenching.
Compound,Potency,"activity change, negative = inhibition"
CC(/C=N/NC(=O)c1c(Br)cnn1C)=C\c1ccccc1,"inconclusive: 39.8 µM [quencher, side channel, partial curve, poor fit]",–
Cc1ccc(C(=O)Nc2ccccc2Sc2ccccc2)cc1,"inconclusive: 28.2 µM [fluorescent, side channel, single point]",–
O=C1CCc2cc(S(=O)(=O)N3CCCC3C(=O)NC3CCCCCCC3)ccc2N1 (stereo not drawn),"inconclusive: 31.6 µM [fluorescent, side channel, single point]",–
COCCCNc1ccnc2c(Cl)cccc12,–,inactive: 2.54%
O=[N+]([O-])c1ccc2nc(-c3ccncc3)[nH]c2c1,"inconclusive: 14.1 µM [quencher, side channel, partial curve]",–
Cc1ccc2c(C)c(C(=O)NCCN3CCCC(O)C3)oc2c1C (stereo not drawn),–,inactive: 2.65%
Cn1c(CNC(=O)c2ccccc2F)nnc1SCc1ccc(Cl)cc1,–,inactive: 0.96%
CN1CCc2c(sc(NC(=O)c3ccc([N+](=O)[O-])o3)c2C(N)=O)C1,"inconclusive: 4.47 µM [quencher, side channel, partial curve]",–
COC(=O)CCCCC1SCC2NC(=O)NC21O (stereo not drawn),active: 0.708 µM,–
COc1ccc(S(=O)(=O)Nc2ccc3c(c2)OCCO3)cc1Cl,–,inactive: -8.13%
O=C(Nc1cccc(C(=O)O)c1)/C(=C\C=C\c1ccccc1)NC(=O)c1ccccc1,"inconclusive: 28.2 µM [quencher, side channel, single point]",–
CCN(C(=O)COC(=O)c1[nH]c(=O)[nH]c(=O)c1N)c1ccccc1,"inconclusive: 11.2 µM [quencher, side channel, partial curve]",–
CC(=O)NC(CC(=O)OCc1ccc([N+](=O)[O-])cc1)c1ccccc1 (stereo not drawn),"inconclusive: 10 µM [quencher, side channel, partial curve]",–
NS(=O)(=O)c1cccc(NS(=O)(=O)c2ccc(/C=C/C(=O)OCC(=O)c3ccc(Br)cc3)cc2)c1,–,inactive: 10.5%
O=C(NNC(=O)c1cc2cc3ccccc3nc2s1)c1ccc(F)cc1,"inconclusive: 1.26 µM [quencher, side channel, partial curve]",–
O=C(CCc1ccccc1)Nc1ccc(N2CCOCC2)c(Cl)c1,"inconclusive: 3.98 µM [quencher, side channel, single point]",–
O=C(NCc1nc2ccccc2[nH]1)c1ccc([N+](=O)[O-])cc1,"inconclusive: 7.94 µM [quencher, side channel, partial curve]",–
CCCCN1C(=O)c2ccc(C(=O)Nc3ccc(C)c(S(=O)(=O)N(C)C)c3)cc2C1=O,"inconclusive: 28.2 µM [quencher, side channel, partial curve]",–
